Biological target: T1, human CTLA4 expressed on cells (hCTLA4-overexpressing Jurkat JE6.2.11 cells); hCTLA4-overexpressing CHO-K1 … (human, UniProt P16410 36-223)
T1 construct: The construct expressed on the cells is not described further; also called huCTLA-4+ CHO-K cells; CTLA-4+ CHO-K1 cells
T1 sequence: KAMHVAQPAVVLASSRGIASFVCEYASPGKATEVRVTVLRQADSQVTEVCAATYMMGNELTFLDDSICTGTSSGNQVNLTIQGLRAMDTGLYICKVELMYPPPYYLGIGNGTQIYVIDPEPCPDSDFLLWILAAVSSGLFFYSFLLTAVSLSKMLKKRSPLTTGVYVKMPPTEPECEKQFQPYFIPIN
Assay: competition flow cytometry (cFACS) on hCTLA4-overexpressing CHO-K1 cells against a fixed concentration (10xEC30) of FITC-labelled hCD80-hFc-HIS6; MedianFI (FITC) of bound ligand

B1: F023700912 (11F01 (E1D,L11V,A14P,Q45R,A74S,K83R,V89L,M96P,Q108L)-35GS-11F01 (L11V,A14P,Q45R,A74S,K83R,V89L,M96P,Q108L)-35GS-ALB 11002-A) (VHH)
chain: DVQLVESGGGVVQPGGSLRLSCAASGGTFSFYGMGWFRQAPGKEREFVADIRTSAGRTYYADSVKGRFTISRDNSKNTVYLQMNSLRPEDTALYYCAAEPSGISGWDYWGQGTLVTVSSGGGGSGGGGSGGGGSGGGGSGGGGSGGGGSGGGGSEVQLVESGGGVVQPGGSLRLSCAASGGTFSFYGMGWFRQAPGKEREFVADIRTSAGRTYYADSVKGRFTISRDNSKNTVYLQMNSLRPEDTALYYCAAEPSGISGWDYWGQGTLVTVSSGGGGSGGGGSGGGGSGGGGSGGGGSGGGGSGGGGS[sequence of about 120 residues omitted]
notes: Trivalent Nanobody construct, bivalent for CTLA4 and monovalent for serum albumin; also called CTLA4 Nab
IC50 (read off the curve): ~6 nM

Reference: US20200157220A1 (Merck Sharp & Dohme, published 2020)
